Test results as given in ChEMBL document CHEMBL1201862, “PubChem BioAssay data set” (2004).
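Tested at 5 concentrations; 48 h exposure; 96-well plates; endpoints linearly interpolated, else capped at highest concentration. GI50 is the concentration that inhibits growth by half.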 Active and inactive are the calls of the source. Rule as the data show it: active = GI50 up to about 1.1 µM and inactive = higher.

The compounds below were run on NCI-H322M (assay: DTP human tumour cell line panel, 48 h).

| Compound | GI50 |
| --- | --- |
| CSc1nc2cc(S(=O)(=O)N3CCCCC3)ccc2s1 | inactive: 48.9 µM |
| Cc1c(Cl)c(S(N)(=O)=O)cc(S(N)(=O)=O)c1NC(=O)c1ccc(Cl)cc1 | inactive: > 100 µM |
| C#CCOC(=O)c1ccccc1O | inactive: > 100 µM |
| O=C1C=CC2(O[C@H](c3ccccc3)[C@@H](c3ccccc3)O2)[C@H](Sc2ccccc2O)C1 | inactive: 3.85 µM |
| Cc1n(Cc2ccccc2)c2c([n+]1C)C(=O)c1ccccc1C2=O | active: 0.361 µM |
| CC(SC1=CC(=O)c2c(Cl)ccc(O)c2C1=O)C(=O)O (configuration not stated) | inactive: 17.4 µM |
| Cc1ccc(N/C(Sc2ccccc2)=C(/C(Cl)=C(Cl)Cl)[N+](=O)[O-])c(C)c1 | inactive: 29.9 µM |
| CC1(c2ccc(F)cc2)C2C(=O)NC(=O)C1C(=O)NC2=O (configuration not stated) | inactive: > 100 µM |
| CCCCCCCCCCCC(=O)NCc1ccc(OC(=O)CCCCCCCCCCC)c(OC)c1 | inactive: > 43.3 µM |
| CN(C)c1ccc(/C=C(\NC(=O)c2ccccc2)C(=O)NC(Cc2c[nH]c3ccccc23)C(=O)O)cc1 (configuration not stated) | inactive: > 100 µM |
| C/C(=C/CC[C@](C)(OC1OC(CO)C(O)C(O)C1O)[C@H]1CC[C@]2(C)[C@@H]1CC[C@@H]1[C@@]3(C)CC[C@H](O)C(C)(C)[C@@H]3C[C@H](O)[C@]12C)CO (some centres not stated) | inactive: 33.3 µM |
| O=C(O)C1C2C=CC(C2)C1c1ccccc1 (configuration not stated) | inactive: > 100 µM |
| O=c1c2ccccc2nc(-c2ccccc2)n1NC(=S)Nc1cccc(Cl)c1 | inactive: > 100 µM |
| NC(=O)CC(Nc1ncc2c(n1)-c1ccccc1OC2)C(=O)O (configuration not stated) | inactive: > 100 µM |
| COc1ccc(N(C(=O)Nc2ccc(Cl)c(Cl)c2)C2c3cccn3C(=O)N2c2ccc(Cl)c(Cl)c2)cc1 (configuration not stated) | inactive: > 100 µM |
| C/C(=N/NC(N)=S)C(CN1CCOCC1)C(C1=C(O)c2ccccc2OC1)c1ccccc1 (configuration not stated) | inactive: > 100 µM |
| O=C1CCC[C@@H]2NC[C@@H](c3ccc4c(c3)OCO4)[C@H]12 | inactive: > 25 µM |
| O=S(=O)(c1ccccc1)c1cccc2c1NCCC2 | inactive: 51.2 µM |
| c1ccc(C2C3=C(CCCC3)Nc3nc4cc5ccccc5cc4n32)cc1 (configuration not stated) | inactive: > 100 µM |
| Nc1nc(N)nc(CCCCc2nc(N)nc(N)n2)n1 | inactive: > 100 µM |
| CCCSc1ccc2[nH]c(N3C(=O)/C(=C/c4ccc(O)c(OC)c4)N=C3c3ccccc3)cc2c1 | active: 0.0545 µM |

| Compound | GI50 |
| --- | --- |
| O=[N+]([O-])C(=C(N1CCCCC1)N1CCCCC1)/C(Cl)=C(\Cl)[N+](=O)[O-] | inactive: 19.4 µM |
| Cc1c(F)c(N)c2c(=O)cc(-c3ccc(NC(=O)C(N)CCCNC(=N)N)c(F)c3)oc2c1F (configuration not stated) | inactive: 14.2 µM |
| Nc1nc(Cl)c(N)c(NCC2(CO)CC(CCCc3ccccc3)C2)n1 (configuration not stated) | inactive: > 49.3 µM |
| O=C(Nc1ccccc1)n1[nH]c(=O)n(-c2ccccc2)c1=O | inactive: > 100 µM |
| CCN1C(=O)/C(=C2\SC(c3ccccc3)(c3ccccc3)c3ccccc32)SC1=S | inactive: > 100 µM |
| CC(=O)O[C@H]1CC[C@@]2(C)C(=CC[C@H]3[C@@H]4C[C@H](N5CCCC5)[C@H](OC(C)=O)[C@@]4(C)CC[C@@H]32)C1 | inactive: > 100 µM |
| O=C1Nc2ccccc2/C1=N/NC(=S)NCc1ccccn1 | inactive: 1.3 µM |
| CCOC(=O)CC(NCc1ccc(/N=C/c2nc3ccc(C(F)(F)F)cc3nc2-c2ccccc2)cc1)C(=O)OCC (configuration not stated) | inactive: > 100 µM |
| O=c1[nH]cnc2c1ncn2[C@@H]1C[C@H]1CO | inactive: > 100 µM |
| CN/N=C(\C(=O)Nc1ccc(C(F)(F)F)cc1[N+](=O)[O-])C(c1cnc2ccc([N+](=O)[O-])cc2n1)[N+](=O)[O-] (configuration not stated) | inactive: > 100 µM |
| Cc1ccc(-c2n[nH]c(=O)n2N)cc1 | inactive: > 100 µM |
| CC[C@@H]1/C=C/C=C/C[C@H](C)[C@@H](O)[C@](C)(O)C(=O)[C@H](C)[C@@H](O)[C@H](C)C(=O)[C@H](C)[C@@H](O)[C@H](C)/C=C/C(=O)O[C@H]2[C@@H](C)[C@@H](CC1)O[C@@]1(CC[C@@H](C)[C@@H](CC(C)O)O1)[C@@H]2C (some centres not stated) | inactive: 3.73 µM |
| CCNC(=O)Nc1ccccn1 | inactive: > 100 µM |
| N#C[C@H](OC1OC(COC2OC(CO)C(O)C(O)C2O)C(O)C(O)C1O)c1ccccc1 (some centres not stated) | inactive: > 250 µM |
| [N-]=[N+]=Nc1c(C=O)c(=O)n(-c2ccccc2)c2ccccc12 | inactive: 67.9 µM |
| CN(C)CCC(=O)N1CCc2c([nH]c3ccccc23)C1c1cccnc1 (configuration not stated) | inactive: > 100 µM |
| COC(=O)C1CC23CCCN4CCC5(c6ccccc6N(C=O)C15CC2)C43 (configuration not stated) | inactive: > 100 µM |
| Nc1[nH]c(=O)[nH]c(=O)c1Cc1cccc(Cl)c1 | inactive: 84.5 µM |
| CCOC(OCC)[C@H](N)[C@@H](O)[C@@H](O)[C@H]1COC(C)(C)O1 | inactive: > 100 µM |
| Cc1csc2nc3[nH]ncc3c(=O)n12 | inactive: > 100 µM |
| CCOC(=O)NC(N(C)C(C(C)C)P(=O)(OCC)OCC)(C(F)(F)F)C(F)(F)F (configuration not stated) | inactive: > 100 µM |

| Compound | GI50 |
| --- | --- |
| COC(=O)c1cc(=O)n(-c2ccc3nn(C)nc3c2)cc1C(=O)OC | inactive: > 100 µM |
| Clc1ccc2ns[s+]c2c1 | inactive: > 39.4 µM |
| C=C1C(=O)O[C@@H]2[C@H](O)[C@@H](C)[C@@H]3C=CC(=O)[C@@]3(C)[C@H](OC(=O)C=C(C)C)[C@H]12 | inactive: 2.86 µM |
| Clc1cc2nnn(C3CCCCO3)c2cc1Cl (configuration not stated) | inactive: 82.6 µM |
| O=[N+]([O-])c1ccc2c3c1[C@@H]1O[C@@H]1c1cccc(c1-3)[C@@H]1O[C@H]21 | inactive: 12.5 µM |
| CCCCCC(/C=N/N)C(O)(C(F)(F)F)C(F)(F)F (configuration not stated) | inactive: 3.1 µM |
| CCOc1ccccc1NC(=O)CC1C(=O)Nc2ccccc2[S+]1[O-] (configuration not stated) | inactive: > 100 µM |
| CC(=O)O[C@H]1CCC2[C@@H]3CCC4Nc5c(cnn5-c5ccccc5)C[C@]4(C)C3CC[C@@]21C (some centres not stated) | inactive: 22.8 µM |
| C=C(CCOC)CCC1CCCCC(CN(C)C)C1=O (configuration not stated) | inactive: > 100 µM |
| COc1ccc(C2=NC(C)(C)CO2)cc1 | inactive: > 100 µM |
| S=c1sc2c(S)nc(S)nc2n1-c1ccccc1 | inactive: > 100 µM |
| Cc1ccc(/N=C2/SC(c3ccc(C)cc3)(c3ccc(C)cc3)c3ccccc32)cc1 | inactive: > 100 µM |
| CON(C)C(=O)C(C)NC(=O)OC(C)(C)C (configuration not stated) | inactive: > 100 µM |
| COc1cc([C@@H]2OCC3C(c4ccc5c(c4)OCO5)OCC32)cc(OC)c1OC (some centres not stated) | inactive: > 100 µM |
| C/C(=C\C(C)COCc1ccccc1)[C@H](COCc1ccccc1)OCc1ccccc1 (some centres not stated) | inactive: > 100 µM |
| O=C1CCCCC/C1=C\c1cccc(F)c1 | inactive: > 100 µM |
| C[n+]1c(-c2ccc(/C=N\Nc3ccnc(N/N=C/c4ccc(-c5cn6ccsc6[n+]5C)cc4)n3)cc2)cn2ccsc21 | inactive: 25 µM |
| Cc1cnc2nc(-c3ccc(Cl)cc3)cc(O)c2c1 | inactive: 5.62 µM |
| CSc1ccc2c(cc1=O)[C@@H](NC(=O)c1cc(O)c(O)c(O)c1)CCc1cc(O)c(O)c(O)c1-2 | inactive: 20 µM |
| COC(=O)NCCc1n[nH]c2c1C(=O)C=C(Nc1ccccc1)C2=O | inactive: 32.1 µM |
